Experimental data taken from the supplement of paper PMC8728848.
Some of the results follow.

Columns and labels:
Test in all cases: glycan array binding signal (z-score within array); higher = stronger binding
Settings in all cases: glycan notation: IUPAC condensed, linker removed
[1] = biological target: Gal(b1-4)GlcNAc(b1-3)Gal(b1-4)GlcNAc(b1-3)Gal(b1-4)GlcNAc(b1-3)Gal(b1-4)GlcNAc(b1-2)Man(a1-3)[Gal(b1-4)GlcNAc(b1-3)Gal(b1-4)GlcNAc(b1-3)Gal(b1-4)GlcNAc(b1-3)Gal(b1-4)GlcNAc(b1-2)Man(a1-6)]Man(b1-4)GlcNAc(b1-4)[Fuc(a1-6)]GlcNAc
Procedure, shortened: (§1)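 Glycan array data came from 3228 arrays in the Consortium for Functional Glycomics database, and only arrays with an available protein sequence were kept. Glycan names were put into IUPAC-condensed notation, and columns mapping to the same glycan were averaged. The binding signal is a within-array Z-score, averaged across arrays of one protein sequence run at different concentrations or buffers and across linkers. A negative Z-score can be read as non-binding.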

[2] = biological target: Gal(b1-4)GlcNAc(b1-3)Gal(b1-4)GlcNAc(b1-3)Gal(b1-4)GlcNAc(b1-3)Gal(b1-4)GlcNAc(b1-2)[Gal(b1-4)GlcNAc(b1-3)Gal(b1-4)GlcNAc(b1-3)Gal(b1-4)GlcNAc(b1-3)Gal(b1-4)GlcNAc(b1-6)]Man(a1-6)[Gal(b1-4)GlcNAc(b1-3)Gal(b1-4)GlcNAc(b1-3)Gal(b1-4)GlcNAc(b1-3)Gal(b1-4)GlcNAc(b1-2)Man(a1-3)]Man(b1-4)GlcNAc(b1-4)[Fuc(a1-6)]GlcNAc
Procedure, shortened: as §1

[3] = biological target: Gal(b1-4)GlcNAc(b1-3)Gal(b1-4)GlcNAc(b1-3)Gal(b1-4)GlcNAc(b1-3)Gal(b1-4)GlcNAc(b1-3)Gal(b1-4)GlcNAc(b1-2)Man(a1-3)[Gal(b1-4)GlcNAc(b1-3)Gal(b1-4)GlcNAc(b1-3)Gal(b1-4)GlcNAc(b1-3)Gal(b1-4)GlcNAc(b1-3)Gal(b1-4)GlcNAc(b1-2)Man(a1-6)]Man(b1-4)GlcNAc(b1-4)GlcNAc
Procedure, shortened: as §1

[4] = biological target: Gal(b1-4)GlcNAc(b1-3)Gal(b1-4)GlcNAc(b1-3)Gal(b1-4)GlcNAc(b1-3)Gal(b1-4)GlcNAc(b1-3)Gal(b1-4)GlcNAc(b1-2)Man(a1-3)[Gal(b1-4)GlcNAc(b1-3)Gal(b1-4)GlcNAc(b1-3)Gal(b1-4)GlcNAc(b1-3)Gal(b1-4)GlcNAc(b1-3)Gal(b1-4)GlcNAc(b1-2)Man(a1-6)]Man(b1-4)GlcNAc(b1-4)[Fuc(a1-6)]GlcNAc
Procedure, shortened: as §1

[5] = biological target: Gal(b1-4)GlcNAc(b1-3)Gal(b1-4)GlcNAc(b1-3)Gal(b1-4)GlcNAc(b1-3)Gal(b1-4)GlcNAc(b1-3)Gal(b1-4)GlcNAc(b1-2)[Gal(b1-4)GlcNAc(b1-3)Gal(b1-4)GlcNAc(b1-3)Gal(b1-4)GlcNAc(b1-3)Gal(b1-4)GlcNAc(b1-3)Gal(b1-4)GlcNAc(b1-6)]Man(a1-6)[Gal(b1-4)GlcNAc(b1-3)Gal(b1-4)GlcNAc(b1-3)Gal(b1-4)GlcNAc(b1-3)Gal(b1-4)GlcNAc(b1-3)Gal(b1-4)GlcNAc(b1-2)Man(a1-3)]Man(b1-4)GlcNAc(b1-4)[Fuc(a1-6)]GlcNAc
Procedure, shortened: as §1

[6] = biological target: Gal(b1-4)GlcNAc(b1-3)Gal(b1-4)GlcNAc(b1-3)Gal(b1-4)GlcNAc(b1-3)Gal(b1-4)GlcNAc(b1-3)Gal(b1-4)GlcNAc(b1-3)Gal(b1-4)GlcNAc(b1-2)Man(a1-3)[Gal(b1-4)GlcNAc(b1-3)Gal(b1-4)GlcNAc(b1-3)Gal(b1-4)GlcNAc(b1-3)Gal(b1-4)GlcNAc(b1-3)Gal(b1-4)GlcNAc(b1-3)Gal(b1-4)GlcNAc(b1-2)Man(a1-6)]Man(b1-4)GlcNAc(b1-4)GlcNAc
Procedure, shortened: as §1

[7] = biological target: Gal(b1-4)GlcNAc(b1-3)Gal(b1-4)GlcNAc(b1-3)GalNAc
Procedure, shortened: as §1

[8] = biological target: Gal(b1-4)GlcNAc(b1-3)Gal(b1-4)GlcNAc(b1-3)[Gal(b1-4)GlcNAc(b1-3)Gal(b1-4)GlcNAc(b1-6)]GalNAc
Procedure, shortened: as §1

[9] = biological target: Gal(b1-4)GlcNAc(b1-3)Gal(b1-4)GlcNAc(b1-6)[Gal(b1-3)]GalNAc
Procedure, shortened: as §1

[10] = biological target: Gal(b1-4)GlcNAc(b1-3)Gal(b1-4)[Fuc(a1-3)GlcNAc(b1-6)]Gal(b1-4)Glc
Procedure, shortened: as §1

[11] = biological target: Gal(b1-4)GlcNAc(b1-3)Gal(b1-4)[Fuc(a1-3)]GlcNAc(b1-3)Gal(b1-4)[Fuc(a1-3)]GlcNAc
Procedure, shortened: as §1

[12] = biological target: Gal(b1-4)GlcNAc(b1-3)GalNAc
Procedure, shortened: as §1

[13] = biological target: Gal(b1-4)GlcNAc(b1-3)[Fuc(a1-3)GlcNAc(b1-6)]Gal(b1-4)Glc
Procedure, shortened: as §1

[14] = biological target: Gal(b1-4)GlcNAc(b1-3)[Gal(b1-4)GlcNAc(b1-6)]Gal(b1-4)GlcNAc
Procedure, shortened: as §1

[15] = biological target: Gal(b1-4)GlcNAc(b1-3)[Gal(b1-4)GlcNAc(b1-6)]GalNAc
Procedure, shortened: as §1

[16] = biological target: Gal(b1-4)GlcNAc(b1-3)[GlcNAc(b1-6)]Gal(b1-4)GlcNAc
Procedure, shortened: as §1

[17] = biological target: Gal(b1-4)GlcNAc(b1-6)Gal(b1-4)GlcNAc
Procedure, shortened: as §1

[18] = biological target: Gal(b1-4)GlcNAc(b1-6)GalNAc
Procedure, shortened: as §1

[19] = biological target: Gal(b1-4)GlcNAc(b1-6)[Gal(b1-3)]GalNAc
Procedure, shortened: as §1

[20] = biological target: Gal(b1-4)GlcNAc(b1-6)[Gal(b1-4)GlcNAc(b1-3)]GalNAc
Procedure, shortened: as §1

[21] = biological target: Gal(b1-4)GlcNAc6P
Procedure, shortened: as §1

[22] = biological target: Gal(b1-6)Gal
Procedure, shortened: as §1

[23] = biological target: Gal3S(b1-3)GalNAc
Procedure, shortened: as §1

[24] = biological target: Gal3S(b1-3)GlcNAc
Procedure, shortened: as §1

[25] = biological target: Gal3S(b1-3)[Fuc(a1-4)]GlcNAc
Procedure, shortened: as §1

[26] = biological target: Gal3S(b1-4)Glc
Procedure, shortened: as §1

[27] = biological target: Gal3S(b1-4)Glc6S
Procedure, shortened: as §1

[28] = biological target: Gal3S(b1-4)GlcNAc
Procedure, shortened: as §1

[29] = biological target: Gal3S(b1-4)GlcNAc6S
Procedure, shortened: as §1

[30] = biological target: Gal3S(b1-4)[Fuc(a1-3)]Glc
Procedure, shortened: as §1

[31] = biological target: Gal3S(b1-4)[Fuc(a1-3)]Glc6S
Procedure, shortened: as §1

[32] = biological target: Gal3S(b1-4)[Fuc(a1-3)]GlcNAc
Procedure, shortened: as §1

[33] = biological target: Gal3S(b1-4)[Fuc(a1-3)]GlcNAc6S
Procedure, shortened: as §1

[34] = biological target: Gal3S4S(b1-4)GlcNAc
Procedure, shortened: as §1

[35] = biological target: Gal3S6S(b1-4)GlcNAc
Procedure, shortened: as §1

[36] = biological target: Gal3S6S(b1-4)GlcNAc6S
Procedure, shortened: as §1

[37] = biological target: Gal4S(b1-4)GlcNAc
Procedure, shortened: as §1

B1: Gal 9 (Homo sapiens), O00182 (protein)
chain: MAFSGSQAPYLSPAVPFSGTIQGGLQDGLQITVNGTVLSSSGTRFAVNFQTGFSGNDIAFHFNPRFEDGGYVVCNTRQNGSWGPEERKTHMPFQKGMPFDLCFLVQSSDFKVMVNGILFVQYFHRVPFHRVDTISVNGSVQLSYISFQNPRTVPVQPAFSTVPFSQPVCFPPRPRGRRQKPPGVWPANPAPITQTVIHTVQSAPGQMFSTPAIPPMMYPHPAYPMPFITTILGGLYPSKSILLSGTVLPSAQRFHINLCSGNHIAFHLNPRFDENAVVRNTQIDNSWGSEERSLPRKMPFVRGQSFSVWILCEAHCLKVAVDGQHLFEYYHRLRNLPTINRLEVGGDIQLTHVQT
[1]
  glycan array binding signal (z-score): 3.19
[2]
  glycan array binding signal (z-score): 9.56
[3]
  glycan array binding signal (z-score): 4.95
[4]
  glycan array binding signal (z-score): 4.2
[5]
  glycan array binding signal (z-score): 2.45
[6]
  glycan array binding signal (z-score): 9.39
[7]
  glycan array binding signal (z-score): -0.271
[8]
  glycan array binding signal (z-score): -0.264
[9]
  glycan array binding signal (z-score): -0.218
[10]
  glycan array binding signal (z-score): 0.418
[11]
  glycan array binding signal (z-score): 0.383
[12]
  glycan array binding signal (z-score): -0.134
[13]
  glycan array binding signal (z-score): -0.285
[14]
  glycan array binding signal (z-score): 1.11
[15]
  glycan array binding signal (z-score): 0.824
[16]
  glycan array binding signal (z-score): 0.555
[17]
  glycan array binding signal (z-score): -0.17
[18]
  glycan array binding signal (z-score): -0.235
[19]
  glycan array binding signal (z-score): -0.234
[20]
  glycan array binding signal (z-score): -0.275
[21]
  glycan array binding signal (z-score): -0.298
[22]
  glycan array binding signal (z-score): -0.318
[23]
  glycan array binding signal (z-score): -0.145
[24]
  glycan array binding signal (z-score): 0.996
[25]
  glycan array binding signal (z-score): -0.289
[26]
  glycan array binding signal (z-score): -0.132
[27]
  glycan array binding signal (z-score): 0.611
[28]
  glycan array binding signal (z-score): 1.32
[29]
  glycan array binding signal (z-score): 4.06
[30]
  glycan array binding signal (z-score): -0.335
[31]
  glycan array binding signal (z-score): -0.273
[32]
  glycan array binding signal (z-score): -0.295
[33]
  glycan array binding signal (z-score): -0.251
[34]
  glycan array binding signal (z-score): -0.316
[35]
  glycan array binding signal (z-score): -0.299
[36]
  glycan array binding signal (z-score): -0.308
[37]
  glycan array binding signal (z-score): -0.279
